From PubChem BioAssay (NCATS)
This is one part of the list. Further columns of the screen follow, without active or inactive calls. Compounds called inactive in the main read-out are mostly missing here. The note in brackets gives the kind of curve behind each potency; many fits are weak.

Experiment: qHTS Assay for Lipid Storage Modulators (AID 1519)
Conditions: Drosophila S3 cells, BODIPY lipid droplet/cell ratio, laser cytometry, cells loaded with oleic acid
Method in brief: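 Cells seeded at 5,000 per well were treated with compounds over a concentration series and loaded with oleic acid (400 uM, as added). Lipid droplet fluorescence (488 nm excitation, 500-530 nm channel) was read by laser-scanning cytometry and normalized to 20 uM Triacsin C.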

[1] = measured here: cell count channel max response
[2] = measured here: cell number channel AC50
[3] = measured here: lipid (BODIPY) channel AC50
[4] = measured here: lipid channel max response
Tags describe the fitted curve by direction and shape.

Structure (SMILES) | max response [1] [%] | AC50 [2] | AC50 [3] | max response [4] [%]
COc1cccc(Cn2c(=O)c(-c3ccc(Cl)cc3)nc3cnc(N(C)C)nc32)c1 | 20.6 | 39.8 nM [rising, full curve, poor fit] | 56.2 nM [rising, full curve] | 25.4
CCCCCCCCCCCCC/C=C\[C@@H](O)[C@@H](N)CO | -11.8 | 224 nM [falling, partial curve, poor fit] | 10000 nM [falling, partial curve, poor fit] | -45.5
FC(F)(F)c1ccccc1-c1cc(NCc2cccnc2)ncn1 | 39.3 | 10000 nM [rising, partial curve] | 14100 nM [rising, partial curve] | 44.9
COc1cccc(-c2nccc(NCc3ccccc3OC)n2)c1 | 16.2 | 1780 nM [rising, partial curve, poor fit] | 1780 nM [rising, partial curve, poor fit] | 19.4
CCNc1ncc2nc(-c3cn(C)c4ccccc34)c(=O)n(Cc3cccs3)c2n1 | 16.4 | 562 nM [rising, full curve, poor fit] | 708 nM [rising, full curve] | 10.6
COc1cccc(-c2cncnc2NCc2cccs2)c1 | 33.6 | 10000 nM [rising, partial curve] | 5620 nM [rising, partial curve] | 39.5
COc1cc(O)c2c(=O)cc(-c3ccc(OC)c(-c4c(O)cc(O)c5c(=O)cc(-c6ccc(O)cc6)oc45)c3)oc2c1 | -43.5 | 35500 nM [falling, single point] | 39800 nM [falling, single point] | -34.6
O=c1cc(-c2ccccc2O)oc2cc(O)cc(O)c12 | 29.6 | 5620 nM [rising, full curve, poor fit] | 5620 nM [rising, full curve, poor fit] | 36
CN(C)C(=O)c1ccc(-c2cncnc2N(C)Cc2ccco2)cc1 | 40.7 | 3550 nM [rising, partial curve, poor fit] | 3980 nM [rising, partial curve, poor fit] | 48.1
COc1cccc(Cn2c(=O)c(-c3cc(F)cc(F)c3)nc3cnc(OC)nc32)c1 | 15.6 | 1580 nM [rising, partial curve, poor fit] | 891 nM [rising, partial curve] | 17
COc1ccc2[nH]c(-c3ccccc3)c(CCNC(C)=O)c2c1 | 104 | 794 nM [rising, full curve] | 398 nM [rising, full curve] | 135
c1ccc2c(NC3CC3)nc(-c3ccoc3)nc2c1 | 23.3 | 2000 nM [rising, partial curve, poor fit] | 56.2 nM [rising, full curve, poor fit] | 32.4
NC(Cc1cnc[nH]1)C(=O)Nc1ccc2ccccc2c1 (stereo unspecified) | 37 | 2000 nM [rising, partial curve, poor fit] | 5010 nM [rising, partial curve, poor fit] | 47.3
COC(=O)[C@H]1[C@H]2CC3c4[nH]c5ccccc5c4CCN3C[C@@H]2CC[C@@H]1O (stereo partly specified) | 36.1 | 31600 nM [rising, single point] | 35500 nM [rising, single point] | 38.8
COC(=O)C(C)(N)Cc1ccc(O)cc1 (stereo unspecified) | 36.2 | 5010 nM [falling, partial curve, poor fit] | 2510 nM [falling, full curve, poor fit] | 35.8
O=C(O)CC/C=C\CC[C@H]1[C@@H](N2CCCCC2)[C@@H](O)C[C@@H]1OCc1ccc(-c2ccccc2)cc1 | 88.7 | 35500 nM [rising, partial curve, poor fit] | 35500 nM [rising, partial curve, poor fit] | 104
COc1ccccc1-c1cc(Nc2ccn[nH]2)ncn1 | 28.6 | 1580 nM [rising, full curve, poor fit] | 1410 nM [rising, full curve, poor fit] | 38.9
COc1cccc(-c2cc(NCc3ccccc3)ncn2)c1 | 21.8 | 3980 nM [rising, partial curve] | 3550 nM [rising, partial curve, poor fit] | 18.3
O=c1c(CCc2ccccc2)nc2cnc(Oc3cccc(Cl)c3)nc2n1C[C@H]1CCCO1 | 27.4 | 1410 nM [rising, partial curve, poor fit] | 1120 nM [rising, partial curve, poor fit] | 18.1
C=CC(C1=CC(=O)C(OC)=C(OC)C1=O)c1ccccc1 (stereo unspecified) | -51.3 | 25100 nM [falling, single point] | 28200 nM [falling, single point] | -91.9

Structure (SMILES) | max response [1] [%] | AC50 [2] | AC50 [3] | max response [4] [%]
N#Cc1ccc(CN2CC3(CCN(C(=O)c4csnn4)CC3)C2)cc1 | 37.2 | 20000 nM [rising, partial curve] | 20000 nM [rising, partial curve] | 48.3
O=c1c(CCc2ccccc2)nc2cncnc2n1C1CC1 | 32.2 | 447 nM [rising, full curve, poor fit] | 316 nM [rising, full curve] | 44.3
COc1cc(OC)c2c(c1)OC(c1ccccc1)CC2=O (stereo unspecified) | 96.3 | 4470 nM [rising, full curve] | 4470 nM [rising, full curve] | 130
O=c1cc(-c2cccc(O)c2O)oc2ccccc12 | 67.9 | 12600 nM [rising, partial curve, poor fit] | 12600 nM [rising, partial curve, poor fit] | 81.2
COc1ccc(CNc2ccnc(-c3ccccc3Cl)n2)c(OC)c1 | 18.6 | 3160 nM [rising, partial curve, poor fit] | 2240 nM [rising, partial curve, poor fit] | 25.6
COc1ccc(Oc2ncc3ncc(=O)n(Cc4cccs4)c3n2)cc1 | 19.7 | 2240 nM [rising, partial curve, poor fit] | 22.4 nM [rising, full curve, poor fit] | 24.9
COc1ccc(-c2nc3cnc(OC)nc3n(C3CC3)c2=O)cc1 | 15.7 | 2000 nM [rising, partial curve] | 2510 nM [rising, partial curve, poor fit] | 26.4
c1cncc(CNc2ccnc(-c3ccc4c(c3)OCO4)n2)c1 | 25.3 | 14.1 nM [rising, full curve] | 89.1 nM [rising, full curve, poor fit] | 30.3
OC[C@@H]1O[C@@H](n2cnc3c(NC4CCCC4)ncnc32)[C@H](O)[C@H]1O | 30.2 | 31600 nM [rising, single point] | 31600 nM [rising, single point] | 38.7
CN(C)c1ncc2nc(CCc3ccccc3)c(=O)n(Cc3ccc(F)cc3)c2n1 | 17.4 | 794 nM [rising, partial curve, poor fit] | 447 nM [rising, partial curve] | 23
CN(C)c1nc(-c2cccnc2)nc2ccccc12 | 37.5 | 398 nM [rising, full curve] | 355 nM [rising, full curve] | 45.7
COCCn1c(=O)c(-c2ccc(OC)cc2)nc2cnc(OC)nc21 | 29.4 | 14.1 nM [rising, full curve, poor fit] | 12.6 nM [rising, full curve, poor fit] | 36.3
O=C(c1c(O)c2ccc(Cl)cc2[nH]c1=O)C1CC1 | 85.5 | 15800 nM [rising, partial curve, poor fit] | 17800 nM [rising, partial curve] | 115
N#Cc1cccc(-c2nccc(NCc3cccnc3)n2)c1 | 40 | 355 nM [rising, full curve] | 355 nM [rising, full curve] | 46
O=c1c(-c2ccc(F)cc2)nc2cncnc2n1Cc1ccccc1 | 31.2 | 355 nM [rising, full curve] | 355 nM [rising, full curve] | 37.4
c1csc(CNc2nc(-c3ccoc3)nc3ccccc23)c1 | 15.3 | 316 nM [rising, full curve, poor fit] | 447 nM [rising, full curve] | 20.6
CC[C@]1(c2ncc[nH]2)Cc2ccccc2O1 | 38.5 | 35500 nM [rising, single point] | 35500 nM [rising, partial curve, poor fit] | 59.9
N[C@@H](Cc1ccc(O)c(I)c1)C(=O)O | 49.7 | 39800 nM [rising, single point] | 39800 nM [rising, single point] | 51
c1ccc(Nc2nc(-c3cccnc3)nc3ccccc23)cc1 | 20.1 | 891 nM [rising, full curve] | 891 nM [rising, full curve] | 23.5
